Results are given in words; binding and its absence hold for the method and conditions named. Binding seen in cells or lysates may run through a third protein. Some results given as binding are weak or reduced against the parent protein; the word gives no strength. For some assays here: Tags and fused reporters may be left off the sequences shown.

By UniProt entry, the sequences of proteins in these tests, tags left out.
UniProt P21187: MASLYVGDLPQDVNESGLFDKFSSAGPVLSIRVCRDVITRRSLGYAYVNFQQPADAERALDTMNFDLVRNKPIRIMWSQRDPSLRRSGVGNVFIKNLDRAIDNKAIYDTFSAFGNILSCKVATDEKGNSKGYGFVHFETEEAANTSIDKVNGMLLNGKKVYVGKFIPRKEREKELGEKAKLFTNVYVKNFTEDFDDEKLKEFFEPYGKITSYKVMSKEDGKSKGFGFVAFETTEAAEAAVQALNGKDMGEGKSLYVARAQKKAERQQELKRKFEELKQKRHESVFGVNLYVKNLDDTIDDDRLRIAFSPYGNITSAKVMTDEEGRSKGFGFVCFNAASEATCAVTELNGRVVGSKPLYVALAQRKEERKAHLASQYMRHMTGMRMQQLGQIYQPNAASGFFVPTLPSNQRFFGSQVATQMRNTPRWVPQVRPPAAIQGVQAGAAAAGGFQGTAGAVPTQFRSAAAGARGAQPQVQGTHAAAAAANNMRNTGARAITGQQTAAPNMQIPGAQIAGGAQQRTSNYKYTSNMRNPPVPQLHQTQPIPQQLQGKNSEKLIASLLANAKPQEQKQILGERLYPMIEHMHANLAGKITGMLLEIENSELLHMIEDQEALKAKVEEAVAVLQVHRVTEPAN

The text below walks through data of PMC5779226.

Test [1] deals with T1, eGFP-ME31B (transfected in S2 cells) (Drosophila) (UniProt P23128).
T1 sequence: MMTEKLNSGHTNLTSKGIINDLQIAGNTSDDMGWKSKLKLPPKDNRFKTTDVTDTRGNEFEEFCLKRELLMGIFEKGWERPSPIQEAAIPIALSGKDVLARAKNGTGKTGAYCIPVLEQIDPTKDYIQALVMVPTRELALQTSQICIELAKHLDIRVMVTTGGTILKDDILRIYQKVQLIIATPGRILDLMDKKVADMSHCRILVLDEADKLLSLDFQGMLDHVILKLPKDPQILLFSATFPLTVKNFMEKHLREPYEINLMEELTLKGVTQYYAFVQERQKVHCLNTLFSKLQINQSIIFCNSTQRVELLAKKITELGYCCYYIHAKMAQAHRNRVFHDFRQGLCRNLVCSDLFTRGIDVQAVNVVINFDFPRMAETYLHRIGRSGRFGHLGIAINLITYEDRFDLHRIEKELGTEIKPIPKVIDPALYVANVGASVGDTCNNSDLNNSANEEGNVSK
The experiment in a line: co-IP; S2 cells transfected with eGFP-ME31B (control FLAG-eGFP), anti-GFP antibodies on protein G beads; western blot. For orientation: In western blotting, separated proteins are transferred to a membrane and probed.

The target of test [2] is T2, eIF4E (D. melanogaster (endogenous in S2 cells and embryos)) (UniProt P48598).
T2 sequence: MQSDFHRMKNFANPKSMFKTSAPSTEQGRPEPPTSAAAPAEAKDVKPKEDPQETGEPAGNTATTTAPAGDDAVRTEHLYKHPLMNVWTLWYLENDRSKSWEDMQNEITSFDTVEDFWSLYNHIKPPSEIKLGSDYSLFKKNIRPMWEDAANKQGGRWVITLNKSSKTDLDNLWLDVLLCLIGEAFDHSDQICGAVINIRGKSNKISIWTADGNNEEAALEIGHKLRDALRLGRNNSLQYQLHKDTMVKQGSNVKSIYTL
In words: pull-down; 0-1 hr embryo lysate on m7GDP-conjugated agarose beads (holds eIF4E by its cap analog), blank agarose beads as control, 3 hr at 4°C; western blot.

Test [3] concerns the target T2, eIF4E (D. melanogaster (endogenous in S2 cells and embryos)). The experiment in a line: pull-down; S2 cell lysate on m7GDP-conjugated agarose beads (holds eIF4E by its cap analog), blank agarose beads as control, 3 hr at 4°C; western blot.
For test [4], the target named is PABP (D. melanogaster (endogenous in S2 cells and embryos)) (UniProt P21187). The experiment in a line: co-IP; 0-1 hr embryo extracts, anti-PABP or anti-eIF4G Fabs (control C1) on anti-FLAG beads, 2-3 hr at 4°C, six washes; western blot; also with or without RNase A on the beads.
For test [5] the target is unchanged. The experiment in a line: co-IP; 1-2 hr wild-type embryo extracts, anti-PABP Fab (control C1); western blot.
For test [6] the target is unchanged. The experiment in a line: co-IP; wild-type embryo extracts from 2-3 hr onwards (to 4-5 hr), anti-PABP Fab (control C1); western blot.
For test [7] the target is unchanged. In words: co-IP; S2 cell extracts, anti-PABP or anti-eIF4G Fabs (control C1) on anti-FLAG beads, 2-3 hr at 4°C, six washes; western blot.
Test [8] concerns the target T3, eGFP-ME31B (trap line embryos) (D. melanogaster (trap line embryos)) (UniProt P23128).
T3 sequence: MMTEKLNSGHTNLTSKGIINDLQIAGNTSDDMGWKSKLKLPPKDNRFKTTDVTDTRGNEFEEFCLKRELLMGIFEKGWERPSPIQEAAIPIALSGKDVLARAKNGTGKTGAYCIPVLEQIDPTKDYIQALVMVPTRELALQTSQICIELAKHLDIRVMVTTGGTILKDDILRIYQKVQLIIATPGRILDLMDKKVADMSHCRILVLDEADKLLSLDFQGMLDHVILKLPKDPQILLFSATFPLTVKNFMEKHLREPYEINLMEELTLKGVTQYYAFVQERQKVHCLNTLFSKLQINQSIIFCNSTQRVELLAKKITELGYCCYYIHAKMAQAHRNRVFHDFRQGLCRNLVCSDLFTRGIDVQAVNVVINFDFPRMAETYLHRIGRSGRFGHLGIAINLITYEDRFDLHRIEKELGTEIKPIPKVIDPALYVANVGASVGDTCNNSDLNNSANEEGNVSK
The experiment in a line: co-IP; 0-1 hr eGFP-ME31B trap line embryo extracts, anti-GFP antibodies (control rabbit IgG) on protein G beads; western blot; also with or without RNase A on the beads.

Test [9] addresses PABP (D. melanogaster (endogenous in S2 cells and embryos)) (UniProt P21187). In words: co-IP; png^50 embryo extracts at 0-1, 2-3 and 4-5 hr, anti-PABP Fab (control C1); western blot.

For PABP (from UniProt P21187 1-634), the binding entry in test [1] is reported as “no binding”; in [2], “binds”; in [3] it was “binds”.

B1: Enhancer of decapping 3 (EDC3) (protein, UniProt Q9VVI2 1-680)
chain: MGPTDQDWIGCAVSIACDEVLGVFQGLIKQISAEEITIVRAFRNGVPLRKQNAEVVLKCTDIRSIDLIEPAKQDLDGHTAPPPVVNKPTPVKLPHFSNILGKQQQLQLQQQQQQLQLQQQQKQQFQEQEREQDLPSTPRSRANDNGRVAAGGASSSSGPRGNFNSALSDKMHQLKLIETNGSNGTLRTPQTSRASSAQQQPQISTTPNSVAAFFGNMIPPKVEVKLGSYVSNTRESYCSSSGDSGEATGLSLGSSKPIDIVSNGDGFYKQTAASSYGNTNGNVRRNGNANNNGNGTGNGSYTNGNGNGNGKNKRNRVRRESSMRQQQVQLTFGSEADDPLIHEDFDFEGNLALFDKQAIWDDIESTTQKPDVVRHIVNNHHHKPEQKYRHDENILASKPLQLRQIESMFGGSQDFVTDDGLIIPTIPAYVRNKIEISADKAGLSLQRQIDILARGASDLAITLLGGARRLTPANNHQWPKIAIICDGGKNMRTINIGAATGRQLASHGLTVLLYVEQAKLLEQNSSSPEISLFKATDNVIVHSVDALPTPDLVILSTNTANLSDAIRKWLSVNRASVLAIDPPPCGINEVAIKYSILPILPLNGISTATTSSSSSAAATPTPIASTSAAASATKSAASTNNCGKLYLCNLGIPDKFYRDCGIKYKSPYGHKYVIPIHSKD
For B1, in test [1], the binding entry was “binds”.

B2: eIF4E (protein, UniProt P48598 1-259)
chain: MQSDFHRMKNFANPKSMFKTSAPSTEQGRPEPPTSAAAPAEAKDVKPKEDPQETGEPAGNTATTTAPAGDDAVRTEHLYKHPLMNVWTLWYLENDRSKSWEDMQNEITSFDTVEDFWSLYNHIKPPSEIKLGSDYSLFKKNIRPMWEDAANKQGGRWVITLNKSSKTDLDNLWLDVLLCLIGEAFDHSDQICGAVINIRGKSNKISIWTADGNNEEAALEIGHKLRDALRLGRNNSLQYQLHKDTMVKQGSNVKSIYTL
As to B2, the binding result in [4], in test [5], in test [6] and in test [7] was “binds” throughout.

B3: Cup (protein, UniProt Q9VMA3 1-1117)
chain: MQMAEAEQENGAGALKIATNAGATDRPAHQQLPLPVEDQQDEVLTPAEKGKFEYPPPPPPPTPVQAPLATKATALNASQEHDDDEANSEKWEDPCAPPPPPPLPTSAFLATGLGYLKLPAFKLKDALEKAITKLEANKRTLKASPESSRSIKNKNVVALEMLPRRSNPETIGDGSMLASTSTAVMLQTKKPAVIVEMERRCKIINLLAKQNQILESISGEAIPMHGPSKHLHEDEGLTLQVLSARASTPYTQPSSMLSCTAVSCDLEHDSPRKQVASKEAVPEQQSSQVQQKRPPSTGIHKPGSLRAPKAVRPTTAPVVSSKPVKSYTRSRLMDIRNGMFNALMHRSKESFVMPRIATCDDIELEGRLRRMNIWRTSDGTRFRTRSTTANLNMNNNNNNECMPAFFKNKNKPNLISDESIIQSQPPQPQTEFQDPAIVNQRRIGSGRLNHSKWGYNDEDYHSYHNGKSQHMEEVNSKNSKNMTVLQFFDNGEISSQPQRRPNTPVMGMSINRSENDTLHSNESSEDLSRANENYVKRVMSGFLVVSKPKSRDVEDRHHRRYRNQNEEPEWFSCGPTSRLDTIELCGFDEDEEKMLKEGNKNHGLGETERETSKQKMDHKYKWTHAEPMGRSKYMPKHDTNNNHNVENMNNVMATEHQQQKEEKRPGSGRSFQFDKFNQSQQNYESSSYVNHQQPPQTQPQQMQQQSNTNTNNSKFMSFFANEGNSSSSSLNEFFKQAINQGHGNNPEQPKSLGHIGQMPSVDQLEAKWRRNSLNNVGETANKQTDNFQKLIGSLSSAKPQSQAVGYDAISNFIMQQQQYQQQQQKQHLIIQQQQQHTAFLASLQLKAILGRADTQLLLLRLTKGEISKHGLLVQLANPRLTDMDREAITAVLQFTNTQQQQQQHKQQLDMLSSTVIASQLQNLHNLAIVQQTLAARQQPQHNPQTQAPHQLSQEDLQAHANVIMRNAVMKRKIEEQTSKLINGGAKHQAQQQYLNRGQQRQARPDANSNALLHALISGGGNNHASGYPMNGQPQKHHSNLRFGDNQNFQSFESNQPHFATQYKQQYQQSQQQHPHQQPQQLNSLHQNNAGAVNSFNKAQMQAQSAISMLPNSGDEFH
In the case of B3, the binding result in test [8] is “binds”; in test [4], “binds”; in test [2] it was “binds”; in [5], “binds weakly”; in [9], “binds”; in test [6] it was “no binding (condition: embryos from 2-3 hr onwards)”.
